The list shows a part of the results. Sequences were assembled here from the parent chain. Inactive controls read about 0.05.
B1: TEV protease; numbered along this chain (parent)
chain: MGESLFKGPRDYNPISSSICHLTNESDGHTTSLYGIGFGPFIITNKHLFRRNNGTLVVQSLHGVFKVKDTTTLQQHLVDGRDMIIIRMPKDFPPFPQKLKFREPQREERICLVTTNFQTKSMSSMVSDTSCTFPSGDGIFWKHWIQTKDGQCGSPLVSTRDGFIVGIHSASNFTNTNNYFTSVPKNFMELLTNQEAQQWVSGWRLNADSVLWGGHKVFMVKPEEPFQPVKEATQL

Variants of: B1
Assay: raw area under fraction-flipped curve 0-4 h after induction (AUC4h, not background-subtracted), DNA-recorder readout of cleavage of the substrate (dimensionless); higher = more cleavage of the substrate by the protease variant
Details: temperature: 34 °C; time window: 0-4 h after rhamnose induction
Description: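 In vivo DNA recorder in E. coli TOP10(DE3) ΔrhaA at 34 °C. Each TEVp single-site mutant (parent TEVp 0) is paired with a single-site variant of the 7-mer TEVs (canonical ENLYFQ|S). The substrate sits between flexible linkers in a Bxb1-sfGFP-TEVs-SsrA fusion, so cleavage stabilises Bxb1 and speeds flipping of a recombination array, read by NGS. The value is the raw area under the fraction-flipped curve over 0-4 h after rhamnose induction (AUC4h), with ≥20 reads per time point. It is not background-subtracted; inactive controls average about 0.047.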
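Also: Bxb1 expression induced with 0.2% (w/v) L-rhamnose at OD600 near 0.5, cultures sampled hourly, flipped fraction per protease–substrate barcode pair counted by paired-end Illumina sequencing.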

Row | Variant | area with substrate ENLYDQS | area with substrate ENLYEQS | area with substrate ENLYGQS | area with substrate ENLYHQS | area with substrate ENLYIQS | area with substrate ENLYKQS | area with substrate ENLYLQS | area with substrate ENLYMQS | area with substrate ENLYNQS | area with substrate ENLYPQS | area with substrate ENLYQQS | area with substrate ENLYRQS | area with substrate ENLYSQS | area with substrate ENLYTQS | area with substrate ENLYWQS | area with substrate ENLYYQS | area with substrate ENLYVQS | area with substrate ENLYCQS
1 | G54L | 0.0543 | 0.0609 | 0.0458 | 0.0515 | 0.0639 | 0.0647 | 0.0585 | 0.0608 | 0.0592 | 0.0592 | 0.044 | 0.0631 | 0.0628 | 0.0599 | 0.0526 | 0.0369 | – | –
2 | F6H | 0.0465 | – | 0.0682 | 0.0827 | 0.0843 | 0.0599 | – | 0.0494 | 0.0872 | – | – | – | – | 0.0929 | 0.0759 | 0.069 | 0.128 | –
3 | M219E | 0.0543 | 0.0742 | 0.0557 | 0.0699 | – | 0.0547 | – | 0.0668 | 0.0681 | 0.0425 | – | 0.0605 | 0.0617 | – | – | 0.0695 | 0.0593 | 0.0625
4 | M219C | 0.0525 | 0.0739 | 0.0469 | 0.0682 | 0.117 | 0.063 | – | 0.0991 | – | 0.0635 | – | 0.058 | – | – | – | – | 0.0927 | 0.0832
5 | T233H | 0.0608 | 0.0528 | 0.108 | 0.0521 | 0.0701 | 0.0789 | – | – | 0.0761 | 0.0718 | – | 0.0577 | 0.0738 | 0.0937 | 0.066 | – | 0.0893 | 0.101
6 | W212K | – | 0.0616 | 0.0535 | – | 0.0491 | 0.0514 | 0.0587 | 0.0661 | 0.0595 | 0.0628 | – | 0.0462 | 0.0629 | 0.0639 | 0.0391 | 0.0555 | 0.0647 | 0.0661
7 | K66P | 0.048 | 0.0647 | 0.0569 | 0.0538 | 0.0969 | 0.0496 | 0.0701 | 0.0727 | 0.0455 | 0.077 | 0.0666 | 0.0251 | – | 0.074 | 0.0608 | 0.0617 | 0.0979 | –
8 | Q118T | 0.0937 | – | 0.067 | – | – | 0.0641 | – | 0.0757 | 0.0711 | – | – | 0.106 | – | – | 0.106 | 0.0693 | 0.129 | 0.0918
9 | T71L | 0.0747 | – | 0.0636 | – | 0.102 | 0.0467 | 0.0702 | 0.0747 | 0.0686 | – | 0.0608 | – | – | 0.0909 | – | – | 0.106 | –
10 | T71W | 0.0797 | 0.0607 | 0.0783 | 0.0375 | 0.15 | 0.0589 | 0.0019 | – | 0.0515 | 0.0338 | – | 0.0326 | – | 0.0487 | 0.0709 | 0.0614 | 0.0993 | –
11 | N45H | 0.0612 | 0.0649 | 0.0422 | 0.0579 | 0.0641 | 0.0634 | – | 0.0686 | 0.058 | 0.0781 | 0.062 | 0.0527 | 0.105 | – | – | – | 0.0657 | –
12 | S123M | 0.063 | 0.0711 | 0.082 | – | 0.112 | 0.0345 | – | 0.0981 | 0.0598 | – | 0.0834 | 0.0566 | 0.0905 | – | – | 0.0658 | – | 0.0856
13 | G213F | – | 0.0586 | 0.0472 | 0.0538 | 0.0526 | – | 0.0409 | 0.053 | 0.0588 | – | 0.0572 | – | 0.0558 | – | 0.0557 | 0.0846 | – | 0.0369
14 | N116Q | – | 0.0803 | 0.0635 | 0.0585 | 0.0973 | – | 0.0821 | 0.124 | 0.0793 | 0.0896 | 0.0059 | 0.0613 | 0.0858 | 0.0769 | 0.0811 | 0.0623 | 0.08 | 0.0847
15 | T181L | – | 0.0607 | 0.0489 | 0.0575 | – | – | 0.0391 | – | 0.0556 | 0.059 | 0.0531 | 0.0576 | 0.0893 | – | 0.0507 | – | 0.0751 | 0.0662
16 | E223T | 0.0573 | 0.0761 | 0.049 | 0.0651 | 0.102 | 0.0565 | – | 0.0731 | 0.0718 | 0.0674 | 0.0635 | – | 0.0756 | 0.0646 | – | 0.107 | 0.113 | 0.0768
17 | K142S | 0.0646 | 0.0584 | 0.068 | 0.0722 | – | – | – | 0.0785 | 0.0695 | 0.0642 | 0.0611 | 0.0741 | 0.0812 | 0.0896 | 0.076 | 0.0593 | 0.103 | 0.0603
18 | K230V | 0.0609 | 0.0682 | – | 0.065 | – | 0.0571 | – | 0.0744 | 0.0641 | 0.0647 | – | 0.0627 | – | – | – | – | 0.114 | 0.0858
19 | K230E | 0.0492 | 0.0536 | 0.0679 | – | 0.116 | 0.0514 | 0.0838 | 0.0827 | 0.0564 | – | 0.073 | – | 0.0763 | 0.118 | 0.0839 | – | 0.0908 | 0.082
20 | S4G | 0.0558 | 0.0597 | 0.0621 | 0.0727 | 0.127 | 0.0445 | 0.102 | 0.0581 | 0.06 | 0.0804 | 0.0692 | 0.0634 | 0.0805 | 0.0803 | 0.0978 | 0.0616 | 0.11 | –
21 | S4M | 0.0624 | 0.0617 | 0.0698 | – | 0.106 | 0.0549 | 0.0857 | 0.0913 | 0.0702 | 0.0718 | – | 0.0686 | 0.0477 | 0.0591 | 0.0637 | – | 0.127 | –
22 | R10P | 0.062 | – | 0.0637 | 0.0652 | 0.0962 | 0.0698 | 0.0613 | 0.0873 | 0.0697 | 0.0803 | 0.0645 | 0.0726 | 0.0739 | 0.0708 | 0.0764 | 0.0489 | 0.106 | –
23 | R10C | 0.0535 | 0.0765 | 0.0651 | 0.0812 | – | 0.0523 | 0.0833 | 0.105 | 0.0705 | 0.0753 | 0.0885 | 0.0473 | 0.0755 | – | – | – | 0.0929 | –
24 | K46P | 0.0664 | 0.05 | 0.0555 | 0.0621 | 0.0618 | 0.0586 | 0.0577 | 0.0621 | 0.0708 | 0.077 | 0.0582 | – | 0.0548 | 0.0573 | 0.0526 | 0.0632 | – | –
25 | R50D | 0.0588 | 0.0595 | – | 0.0491 | – | 0.0266 | 0.0767 | – | 0.0779 | – | – | – | 0.0675 | – | 0.0602 | – | – | –
26 | C20F | 0.0457 | 0.0481 | 0.0389 | 0.0597 | – | 0.0436 | 0.0526 | 0.0553 | 0.0551 | 0.0118 | – | – | – | – | 0.0574 | 0.0527 | 0.0569 | –
